The whole screen tested about 52,000 compounds, of which about 1,700 (3.3%) were called active. Cut-off read from the data, not from the text of the source: active = survival mostly below about 52% (no sharp cut-off); inactive = mostly above about 56%. Some of the results follow.

The subject of this assay is Wild type. The experiment in a line: growth inhibition of S. aureus wild type versus tarO mutant, primary screen, teichoic acid synthesis inhibitors, RN4220, OD600 (AID 463173). The note with it: S. aureus RN4220 wild type/DeltatarO growth, OD600, 18 h, stronger effect = lower value, screened at 18.75 µg/mL (by protocol).
With `COc1ccc2nc(SC)nc(C)c2c1`, the survival is inactive: 107%. For the compound `COc1ccc(NC(=O)C2CCC(CNS(=O)(=O)c3ccc(Br)s3)CC2)c(OC)c1` (stereo not given), the survival is inactive: 83%. The result for `CC(C)CC(C(=O)NCC1CCN(Cc2ccc(F)cc2)CC1)N1Cc2ccccc2C1=O` (stereo not given) reads inactive: 78%; that for `CCc1ccc(NC(=O)Cn2cc(S(=O)(=O)c3ccc(F)cc3)c(=O)c3cc(OC)ccc32)cc1`, inactive: 81%; that for `CC(=O)c1ccc(NC(=O)CCc2c(C)nn(-c3ccc4nnc(C)n4n3)c2C)cc1`, inactive: 71%. With `O=C(O)CCN1CCCC1`, the survival was inactive: 113%.

`COc1cc(NC(=O)N2CCC(CN3CCCCCC3)CC2)cc(OC)c1OC`: the survival is inactive: 63%. Regarding `CCOC(=O)C1(Cc2ccc(O)cc2)NC(c2ccco2)C2C(=O)N(c3ccccc3F)C(=O)C21` (stereo not given), the survival was inactive: 120%. The result for `CCc1nc(-c2ccc(C)c(S(=O)(=O)N3CCN(c4ccc(C(C)=O)cc4)CC3)c2)no1` reads inactive: 73%; that for `O=C(c1ccc2c(c1)OCCO2)C1CCCCC1`, inactive: 101%. With `Cc1ccccc1C(=O)N1c2ncnn2C2(CCCCC2)[C@@H]2CCCC[C@@H]21`, the survival is inactive: 82%.

As to `O=C(O)c1ccc(OCOc2ccc(C(=O)O)c(C(=O)O)c2)cc1C(=O)O`, the survival was inactive: 102%. With `Cc1ccccc1Cn1c(=O)n(CCC(=O)NCc2ccco2)c(=O)c2sccc21`, the survival is inactive: 87%. Take `COC(=O)C1=C(C)N(C(C)C)C(=O)C1(NC(=O)c1ccc(C(C)(C)C)cc1)C(F)(F)F` (stereo not given): the survival is inactive: 65%. As to `CC(C)Nc1nc2c(-c3cccc(Br)c3)nnn2c2ccccc12`, the survival was inactive: 74%. The result for `O=C(NCCn1cc(SCc2ccc(F)cc2)c2ccccc21)c1cccs1` reads inactive: 53%. Under `CCn1cc(C(=O)N2CCN(c3cc(Cl)ccc3C)CC2)c(=O)c2cc(S(=O)(=O)N3CCCCC3)ccc21` stands inactive: 79%; under `CCOc1ccc(C(=O)Nc2ccc(-n3nncc3-c3ccc(OC)cc3)cc2)cc1`, inactive: 74%.

Turning to `Cc1ccc(NC(=O)CSc2nc(-c3ccco3)nc3cc(=O)[nH]n23)cc1`, the survival was inactive: 84%. `CCCc1cc(=O)[nH]c(Nc2ccc(OCC)cc2)n1`: the survival was inactive: 85%. As for `COc1ccccc1NC(=O)C1=C(C)Nc2nc(-c3ccco3)nn2C1c1ccccc1F` (stereo not given), the survival was inactive: 78%. As for `Cn1nnnc1SCCNCc1ccc(Cl)c(Cl)c1`, the survival was inactive: 66%. In the case of `Cc1ccc(Cn2c(C)c3cnn(CC(=O)NCCc4ccc(Cl)cc4)c(=O)c3c2C)cc1`, the survival was inactive: 83%. The result for `Cc1cccc(S(=O)(=O)c2cn(C)c3cc(N4CCN(c5ccccc5)CC4)c(F)cc3c2=O)c1` reads inactive: 117%. Under `COc1cccc(CCNC(=O)c2cnc3sc(N4CCOCC4)nn3c2=O)c1` stands inactive: 125%.

For the origin of these results see PubChem BioAssay AID463173 (ICCB-Longwood Screening Facility, Harvard Medical School, 2010).
